Laboratory results reported in US11198713B2, “Agents modulating beta-catenin functions and methods thereof” (FOG PHARMACEUTICALS, INC., priority 2017, dated 2021).
Not every detail of the peptide structures is certain; ends, links or a residue may be inferred. For some of these results: At least one compound was matched to its structure with a doubt left. Some entries repeat one wording, which the source may state once for all of them.

How the values were obtained:
[1] = target: T1, full-length beta-catenin (Axin site) (Homo sapiens, UniProt P35222); experiment: Competition fluorescence polarization assay (Axin site probe); type: binding
T1 construct: 15 nM full-length beta-catenin, 20 nM FITC labeled peptide in buffer
T1 sequence (P35222 1-781): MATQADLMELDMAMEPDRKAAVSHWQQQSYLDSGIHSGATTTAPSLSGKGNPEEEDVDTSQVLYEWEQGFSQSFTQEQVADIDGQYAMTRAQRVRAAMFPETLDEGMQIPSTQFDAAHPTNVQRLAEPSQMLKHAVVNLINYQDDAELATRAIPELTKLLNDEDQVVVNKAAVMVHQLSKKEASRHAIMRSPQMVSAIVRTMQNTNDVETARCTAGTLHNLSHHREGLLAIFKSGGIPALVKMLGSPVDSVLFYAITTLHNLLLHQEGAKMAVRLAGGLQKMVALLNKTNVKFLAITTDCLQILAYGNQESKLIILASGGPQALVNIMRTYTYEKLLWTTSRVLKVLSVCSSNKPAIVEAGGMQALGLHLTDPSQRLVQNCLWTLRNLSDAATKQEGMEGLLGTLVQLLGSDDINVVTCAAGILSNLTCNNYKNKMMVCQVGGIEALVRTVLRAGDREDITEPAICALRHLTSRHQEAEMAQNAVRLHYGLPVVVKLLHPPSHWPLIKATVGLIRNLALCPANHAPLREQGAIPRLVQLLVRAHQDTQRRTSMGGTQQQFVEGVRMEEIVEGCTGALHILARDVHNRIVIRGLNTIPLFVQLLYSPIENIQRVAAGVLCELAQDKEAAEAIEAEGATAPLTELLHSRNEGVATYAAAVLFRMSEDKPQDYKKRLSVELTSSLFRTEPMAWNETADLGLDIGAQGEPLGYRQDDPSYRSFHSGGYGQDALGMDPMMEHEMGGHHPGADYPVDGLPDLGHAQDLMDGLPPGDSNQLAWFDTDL
Protocol: FIG. 1. […] Peptide solutions were prepared in buffer (50 mM Tris pH 8.0, 250 mM NaCl, 2% glycerol, 0.5 mM EDTA, 0.02% w/v sodium azide) using a 3-fold serial dilution from 5 μM. Probe solution (15 nM full-length 13-Catenin, 20 nM FITC labeled peptide (FITC-PEG1-PQ-S5-ILD-S5-HVRRVWR (SEQ ID NO: 1) (hydrocarbon staple formed by two S5 via olefin metathesis)) in buffer) was prepared and incubated for 5 minutes, then 40 μL per well plated in a black polystyrene 384-well plate (Corning). Equal volume of the titrated peptide was added to the plate and incubated protected from light for 15 minutes prior to read. Reads were performed on a Spectramax M5 (Molecular Devices) in duplicate.
FIG. 7. […] BCL9 Competition FP assay: Peptide solutions were prepared in buffer (50 mM Tris pH 8.0, 250 mM NaCl, 2% glycerol, 0.5 mM EDTA, 0.02% w/v sodium azide) using a 3-fold serial dilution from 10 μM. Probe solution (250 nM full-length beta-catenin, 20 nM 5FAM labeled peptide in buffer) was prepared and 40 μL per well plated in a black polystyrene 384-well plate (Corning). Equal volume of the titrated peptide was added to the plate and incubated protected from light for 15 minutes prior to read. Reads were performed on a Spectramax M5 (Molecular Devices) in duplicate. Probe: Ac-[…]nLeu-Leu-2NapA-bala-bala-Lys5FAM-NH2 (SEQ ID NO: 2) (from Biochemistry, 2009, 48 (40), pp 9534-9541). Axin Competition FP assay: Peptide solutions were prepared in buffer (50 mM Tris pH 8.0, 250 mM NaCl, 2% glycerol, 0.5 mM EDTA, 0.02% w/v sodium azide) using a 3-fold serial dilution from 5 μM. Probe solution (15 nM full-length beta-catenin, 20 nM FITC labeled peptide in buffer) was prepared and incubated for 5 minutes, then 40 μL per well plated in a black polystyrene 384-well plate (Corning). Equal volume of the titrated peptide was added to the plate and incubated protected from light for 15 minutes prior to read. Reads were performed on a Spectramax M5 (Molecular Devices) in duplicate. Probe: FITC-StAx-33 from Grossmann et al. PNAS 109 17942-17947.

[2] = system: TCF/LEF Luciferase reporter HEK293 cell lines; experiment: TCF/LEF reporter assay; type: cell-based; conditions: 10 μM, Table 2
[3] = Table 3 Part A, carbamate-stapled peptides

Compound | Target Binding [1, 3] | TCF/LEF Reporter Inhibition at 10 μM [2] [%] | further results
CC[C@H](C)[C@@H]1NC(=O)[C@H](Cc2c[nH]cn2)NC(=O)[C@H](C)NC(=O)[C@H](CC(=O)O)NC(=O)[C@H](CC(C)C)NC(=O)[C@H]([C@@H](C)CC)NC(=O)[C@](C)(NC(=O)[C@H](C)NC(C)=O)CCCCCCC=CCOC(=O)N2CC[C@@](C(=O)N[C@@H](CCCNC(=N)N)C(=O)N[C@H](C(=O)N[C@@H](Cc3c[nH]c4ccccc34)C(N)=O)C(C)C)(C2)NC1=O (single isomer, unassigned) [FP0217c, Ac-A-R8-I-L-D-A-H-I-MB-R-V-W-NH2] | Yes (Isomer 2 |  | 
CC[C@H](C)[C@@H]1NC(=O)[C@H](Cc2c[nH]cn2)NC(=O)[C@H](C)NC(=O)[C@H](CC(=O)O)NC(=O)[C@H](CC(C)C)NC(=O)[C@H]([C@@H](C)CC)NC(=O)[C@](C)(NC(=O)[C@H](C)NC(C)=O)CN(C)C(=O)OCC=CCCCCCC[C@@](C)(C(=O)N[C@@H](CCCNC(=N)N)C(=O)N[C@H](C(=O)N[C@@H](Cc2c[nH]c3ccccc23)C(N)=O)C(C)C)NC1=O (single isomer, unassigned) [FP0335c, Ac-A-ME-I-L-D-A-H-I-S8-R-V-W-NH2] | Yes (Isomer 2 |  | 
CC[C@H](C)[C@@H]1NC(=O)[C@H](Cc2c[nH]cn2)NC(=O)[C@H](C)NC(=O)[C@H](CC(=O)O)NC(=O)[C@H](CC(C)C)NC(=O)[C@H]([C@@H](C)CC)NC(=O)[C@](C)(NC(=O)[C@H](C)NC(C)=O)CCCCC=CCOC(=O)N(C)CC[C@@](C)(C(=O)N[C@@H](CCCNC(=N)N)C(=O)N[C@H](C(=O)N[C@@H](Cc2c[nH]c3ccccc23)C(N)=O)C(C)C)NC1=O (single isomer, unassigned) [FP0502c, Ac-A-R6-I-L-D-A-H-I-MF-R-V-W-NH2] | Yes |  | 
CC[C@H](C)[C@@H]1NC(=O)[C@H](Cc2c[nH]cn2)NC(=O)[C@H](C)NC(=O)[C@H](CC(=O)O)NC(=O)[C@H](CC(C)C)NC(=O)[C@H]([C@@H](C)CC)NC(=O)[C@](C)(NC(=O)[C@H](C)NC(C)=O)CCCC=CCOC(=O)N(C)CCC[C@@](C)(C(=O)N[C@@H](CCCNC(=N)N)C(=O)N[C@H](C(=O)N[C@@H](Cc2c[nH]c3ccccc23)C(N)=O)C(C)C)NC1=O (single isomer, unassigned) [FP0510c, Ac-A-R5-I-L-D-A-H-I-MH-R-V-W-NH2] | Yes (Isomer 2 |  | 
CC[C@H](C)[C@@H]1NC(=O)[C@H](Cc2c[nH]cn2)NC(=O)[C@H](C)NC(=O)[C@H](CC(=O)O)NC(=O)[C@H](CC(C)C)NC(=O)[C@H]([C@@H](C)CC)NC(=O)[C@](C)(NC(=O)[C@H](C)NC(C)=O)CCCCC=CCOC(=O)N(C)CCC[C@@](C)(C(=O)N[C@@H](CCCNC(=N)N)C(=O)N[C@H](C(=O)N[C@@H](Cc2c[nH]c3ccccc23)C(N)=O)C(C)C)NC1=O (single isomer, unassigned) [FP0511c, Ac-A-R6-I-L-D-A-H-I-MH-R-V-W-NH2] | Yes (Isomer 2 |  | 
CC[C@H](C)[C@@H]1NC(=O)[C@H](Cc2c[nH]cn2)NC(=O)[C@H](C)NC(=O)[C@H](CC(=O)O)NC(=O)[C@H](CC(C)C)NC(=O)[C@H]([C@@H](C)CC)NC(=O)[C@](C)(NC(=O)[C@H](C)NC(C)=O)CCCCCC=CCN2CC(C(=O)N[C@@H](CCCNC(=N)N)C(=O)N[C@H](C(=O)N[C@@H](Cc3c[nH]c4ccccc34)C(N)=O)C(C)C)(C2)NC1=O (single isomer, unassigned) [FP0516a, Ac-A-R7-I-L-D-A-H-I-MA-R-V-W-NH2] |  |  | Target Binding ([1]; Table 3 Part B, amino-stapled product): Yes (Isomer 1 binds
CC[C@H](C)[C@@H]1NC(=O)[C@H](Cc2c[nH]cn2)NC(=O)[C@H](C)NC(=O)[C@H](CC(=O)O)NC(=O)[C@H](CC(C)C)NC(=O)[C@H]([C@@H](C)CC)NC(=O)[C@](C)(NC(=O)[C@H](C)NC(C)=O)CCCCCCC=CCOC(=O)N2CC[C@@](C(=O)N[C@@H](CCCCN)C(=O)N[C@H](C(=O)N[C@@H](Cc3c[nH]c4ccccc34)C(N)=O)C(C)C)(C2)NC1=O [FP0635c, Ac-A-R8-I-L-D-A-H-I-MB-K-V-W-NH2] |  | 19 | 
CC[C@H](C)[C@@H]1NC(=O)[C@H](Cc2c[nH]cn2)NC(=O)[C@H](C)NC(=O)[C@H](CC(=O)O)NC(=O)[C@H](CC(C)C)NC(=O)[C@H]([C@@H](C)CC)NC(=O)[C@](C)(NC(=O)[C@H](C)NC(C)=O)CCCCCCC=CCOC(=O)N2CC[C@@](C(=O)N[C@@H](CCCCNC)C(=O)N[C@H](C(=O)N[C@@H](Cc3c[nH]c4ccccc34)C(N)=O)C(C)C)(C2)NC1=O [FP0636c, Ac-A-R8-I-L-D-A-H-I-MB-lmeK-V-W-NH2] |  | 41 | 
CC[C@H](C)[C@@H]1NC(=O)[C@H](Cc2c[nH]cn2)NC(=O)[C@H](C)NC(=O)[C@H](CC(=O)O)NC(=O)[C@H](CC(C)C)NC(=O)[C@H]([C@@H](C)CC)NC(=O)[C@](C)(NC(=O)[C@H](C)NC(C)=O)CCCCCCC=CCOC(=O)N2CC[C@@](C(=O)N[C@@H](CCCNC(=N)N(C)C)C(=O)N[C@H](C(=O)N[C@@H](Cc3c[nH]c4ccccc34)C(N)=O)C(C)C)(C2)NC1=O [FP0639c, Ac-A-R8-I-L-D-A-H-I-MB-ADMA-V-W-NH2] |  | 40 | 
CC[C@H](C)[C@@H]1NC(=O)[C@H](Cc2c[nH]cn2)NC(=O)[C@H](C)NC(=O)[C@H](CC(=O)O)NC(=O)[C@H](CC(C)C)NC(=O)[C@H]([C@@H](C)CC)NC(=O)[C@](C)(NC(=O)[C@H](C)NC(C)=O)CCCCCCC=CCOC(=O)N2CC[C@@](C(=O)N[C@@H](CCCNC(=NC)NC)C(=O)N[C@H](C(=O)N[C@@H](Cc3c[nH]c4ccccc34)C(N)=O)C(C)C)(C2)NC1=O [FP0640c, Ac-A-R8-I-L-D-A-H-I-MB-SDMA-V-W-NH2] |  | 25 | 
CC[C@H](C)[C@@H]1NC(=O)[C@H](Cc2c[nH]cn2)NC(=O)[C@H](C)NC(=O)[C@H](CC(=O)O)NC(=O)[C@](C)(CC(C)C)NC(=O)[C@H]([C@@H](C)CC)NC(=O)[C@](C)(NC(=O)[C@H](C)NC(C)=O)CCCCCCC=CCOC(=O)N2CC[C@@](C(=O)N[C@@H](CCCNC(=N)N)C(=O)N[C@H](C(=O)N[C@@H](Cc3c[nH]c4ccccc34)C(N)=O)C(C)C)(C2)NC1=O [FP0644c, Ac-A-R8-I-aMeL-D-A-H-I-MB-R-V-W-NH2] |  | 34 | 
CC[C@H](C)[C@@H]1NC(=O)[C@H](Cc2c[nH]cn2)NC(=O)C(C)(C)NC(=O)[C@H](CC(=O)O)NC(=O)[C@H](CC(C)C)NC(=O)[C@H]([C@@H](C)CC)NC(=O)[C@](C)(NC(=O)[C@H](C)NC(C)=O)CCCCCCC=CCOC(=O)N2CC[C@@](C(=O)N[C@@H](CCCNC(=N)N)C(=O)N[C@H](C(=O)N[C@@H](Cc3c[nH]c4ccccc34)C(N)=O)C(C)C)(C2)NC1=O [FP0645c, Ac-A-R8-I-L-D-Aib-H-I-MB-R-V-W-NH2] |  | 26 | 
CCCCCCCCCCCCCC(=O)N[C@@H](C)C(=O)N[C@]1(C)CCCCCCC=CCOC(=O)N2CC[C@@](C(=O)N[C@@H](CCCNC(=N)N)C(=O)N[C@H](C(=O)N[C@@H](Cc3c[nH]c4ccccc34)C(N)=O)C(C)C)(C2)NC(=O)[C@H]([C@@H](C)CC)NC(=O)[C@H](Cc2c[nH]cn2)NC(=O)[C@H](C)NC(=O)[C@H](CC(=O)O)NC(=O)[C@H](CC(C)C)NC(=O)[C@H]([C@@H](C)CC)NC1=O [c14-FP0217c, Myr-A-R8-I-L-D-A-H-I-MB-R-V-W-NH2] |  | 54 | 
